Our source for the B-score values is the supplement of paper PMC11283458.

Each structure is given as a SMILES string. Counter-ions that a name gives are not always drawn. This is one part of the list. Many values rest on one well or one pass, so single values are uncertain.

Assay [1] deals with Mef2d microexon dual Nano/Firefly luciferase splicing reporter in Neuro-2a cells. Nature of the assay: B-score of Firefly/Nano luminescence ratio, V1 Mef2d microexon reporter (B-score (plate-normalised)); higher = more Mef2d microexon inclusion. Conditions: 24 h.
The test system is the same in assay [2]. Description: B-score of Nano/Firefly luminescence ratio, V2 Mef2d microexon reporter (B-score (plate-normalised)); higher = more Mef2d microexon inclusion. As to conditions: 24 h.
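Wherever B-score of Nano/Firefly luminescence ratio, V2 Mef2d microexon reporter is given: compounds at 4 µM (PKI library 0.5 µM) on Dox-inducible N2A Flp-In cells with PEST-tagged luciferases, 384-well plates, B-score from per-plate median-polish residual over median absolute residual.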

On to `COCCCNC(=S)N/N=C/c1cccc(OC)c1O` (4 µM), for which the B-score in assay [1] was 1.7; in assay [2] it was 6.36.
The like results for `c1ccc2c(CN3CCSCC3)c[nH]c2c1` (4 µM) were, in that order, 15.1 and 1.47.
The like results for `Nc1nc(=S)c2ncn([C@@H]3O[C@H](CO)[C@@H](O)[C@H]3O)c2[nH]1` [Thioguanosine] (4 µM) were, in that order, -16.3 and -13.2.
The like results for `O=S(=O)(Nc1ccc(-n2nc(C(F)(F)F)cc2C(F)(F)F)cc1)c1ccc(Cl)c(Cl)c1` (4 µM) were, in that order, 5.71 and 4.97.
In the case of `CC1(c2ccc([N+](=O)[O-])cc2)NN=C(c2ccccc2)S1` (configuration not stated) (4 µM), the B-score in assay [1] came to 13.8; in assay [2] it was 2.9.
As to `Cc1c(C(=O)ON=C(N)c2cc(C(F)(F)F)cc(C(F)(F)F)c2)sc2cc(C(C)(C)C)sc12` (4 µM), the B-score came to 11 in assay [1] and 4.42 in assay [2].
As for `Nc1c2c(nc3ccccc13)CCCC2` [9-Amino-1,2,3,4-tetrahydroacridine hydrochloride] (4 µM), the B-score in assay [1] came to 9.74; in assay [2] it was 13.7.
The like results for `Cc1cccc(N2CCN(C(=O)c3c(-c4ccccc4)noc3C)CC2)c1C` (4 µM) were, in that order, -6.52 and -9.52.
Turning to `CCc1cc2c(=O)c(-c3nc4ccccc4n3C)c(C)oc2cc1O` (4 µM), the B-score in assay [1] is -8; in assay [2], -10.5.
On the same counts, the results for `O=C(Nc1ccc(Cl)cc1)ON=C1CC2CCCC(C1)N2Cc1ccccc1` (4 µM) are -3.22 and -10.8.
The like results for `COc1cc2c(cc1OC)-c1[nH]nc(Nc3cccc(F)c3)c1C2` (0.5 µM) were, in that order, -6.53 and -4.66.
On the same counts, the results for `O=C(C=Cc1cc([N+](=O)[O-])ccc1Sc1ccc(C(F)(F)F)cn1)Nc1ccccc1` (4 µM) are 0.824 and 4.52.
Regarding `N#Cc1c(O)nsc1Nc1ccccc1Cl` (4 µM), the B-score in assay [1] is -3.04; in assay [2] it was -1.33.
Turning to `COc1cc2ncn(-c3cc(OCc4ccccc4C(F)(F)F)c(C(N)=O)s3)c2cc1OC` (4 µM), the B-score in assay [1] was -9.11; in assay [2], -6.52.
On the same counts, the results for `COC(=O)/C=C/c1cc(O)ccc1O` [Methyl 2,5-dihydroxycinnamate] (4 µM) are -2.6 and -8.19.
On the same counts, the results for `Cc1onc(-c2c(Cl)cccc2Cl)c1-c1nc(-c2cc(Cl)c(N)c(Cl)c2)no1` (4 µM) are 9.11 and 0.947.
The like results for `Cc1cc(=O)oc2cc(NS(=O)(=O)c3ccc4c(c3)CCO4)ccc12` (4 µM) were, in that order, -0.278 and 13.2.
On to `CONC1CCCCC1NOC.Cl.Cl` (configuration not stated) (4 µM), for which the B-score in assay [1] was -13.4; in assay [2], -0.208.
The like results for `Cc1onc(-c2ccccc2)c1C(=O)ON=C1C2CC3CC(C2)CC1C3` (4 µM) were, in that order, 9.14 and 1.4.
Turning to `CON=C1CCCc2c(C(=O)NN=Cc3ccc(Cl)cc3)sc(SC)c21` (4 µM), the figures for the B-score in assay [1] and in assay [2] were -6.49 and -9.34, respectively.
On the same counts, the results for `CCCCOc1ccc(C2CC(=O)C3=C(C2)c2c(ccc4ccccc24)NC3c2ccc(OC)cc2)cc1` (configuration not stated) (4 µM) are 5.27 and 2.48.
As to `Cc1ccc2c(=O)c3ccccc3n(CCCN)c2c1C` (4 µM), the B-score was -12.7 in assay [1] and -18.8 in assay [2].
In the case of `N#Cc1c(O)nsc1Nc1ccccc1C(F)(F)F` (4 µM), the figures for the B-score in assay [1] and in assay [2] were -1.35 and -2.51, respectively.
With `Cc1ccc(CNc2ccc3nnc(-c4ccccc4)n3n2)cc1` (4 µM), the B-score in assay [1] stood at 9.28; in assay [2], 2.36.
On the same counts, the results for `Oc1cccc(-c2nc(N3CCOCC3)c3sccc3n2)c1` [PI3-Kinase a Inhibitor 2] (0.5 µM) are -4.53 and -4.52.
For the compound `CCCCOc1ccc(C2CC(=O)C3=C(C2)c2c(ccc4ccccc24)NC3c2ccc(OC)c(OC)c2)cc1` (configuration not stated) (4 µM), the B-score in assay [1] worked out at 3.73; in assay [2], 3.34.
The like results for `O=C1C=CC(=O)N1c1ccc(I)cc1Cl` (4 µM) were, in that order, 13.7 and 1.79.
The like results for `COc1ccccc1OCCOc1ccccc1OC` (4 µM) were, in that order, -0.236 and 9.51.
Regarding `COc1cc(N2CCC(N3CCN(C)CC3)CC2)ccc1Nc1ncc(Cl)c(Nc2ccccc2S(=O)(=O)C(C)C)n1` (0.5 µM), the B-score is -3.63 in assay [1] and -4.26 in assay [2].
The like results for `Nc1nccc(Oc2ccc(NC(=O)c3c[nH]cc(-c4ccc(F)cc4)c3=O)cc2F)c1Cl` (0.5 µM) were, in that order, 10.7 and 10.7.
On the same counts, the results for `Br.Cc1ccc(C2=Nn3c(nnc3-c3cc(Cl)cc(Cl)c3)SC2)cc1` (4 µM) are -2.61 and -4.96.
With `S=C(NN=Cc1ccccn1)NC1CC2C=CC1C2` (configuration not stated) (4 µM), the B-score in assay [1] was determined as 14.3; in assay [2], 14.6.
Regarding `O=C1OC(CC(=O)c2csc3ccccc23)c2ccccc21` (configuration not stated) (4 µM), the results for the B-score in assay [1] and in assay [2] were 10.4 and 2.5, respectively.
In the case of `NC(=NOC(=O)Nc1ccc(Cl)cc1)c1ccc(C2SCCS2)cc1` (4 µM), the B-score in assay [1] turned out to be 8.6; in assay [2], 0.932.
Turning to `Oc1nc2ccccc2nc1-c1c[nH]c2ccccc12` (4 µM), the B-score was 9.44 in assay [1] and 1.5 in assay [2].
The like results for `COc1cc(CCc2cc(NC(=O)c3ccc(N4CC(C)NC(C)C4)cc3)n[nH]2)cc(OC)c1` (configuration not stated) (0.5 µM) were, in that order, 5.67 and 10.9.
